Among all 410,000 compounds or so, about 6,400 (1.6%) were called active. This list was built around the results that the source calls inconclusive (neither active nor inactive); the mix of calls is not that of the screen. Calls follow the shape of the dose curve; as a rule, active = well fitted inhibition curve with a large enough effect; inconclusive = small, poorly fitted or top-dose-only effect; inactive = no such curve, though single readings can be large or run the other way. No potency is given beside an inconclusive call; the fits are too rough.
Each molecule was assayed against Glucagon-like peptide 1 receptor (Homo sapiens) (UniProt P43220) (assay: qHTS of GLP-1 Receptor Inverse Agonists (Inhibition Mode)). Settings: HEK293 GLP-1R CRE-luciferase, luminescence, 24 h, GLP-1R form is constitutively active; activity change, negative = inhibition: at 38.3 µM (top of the series) unless noted.
Chain of UniProt P43220 (P43220 whole entry, looked up): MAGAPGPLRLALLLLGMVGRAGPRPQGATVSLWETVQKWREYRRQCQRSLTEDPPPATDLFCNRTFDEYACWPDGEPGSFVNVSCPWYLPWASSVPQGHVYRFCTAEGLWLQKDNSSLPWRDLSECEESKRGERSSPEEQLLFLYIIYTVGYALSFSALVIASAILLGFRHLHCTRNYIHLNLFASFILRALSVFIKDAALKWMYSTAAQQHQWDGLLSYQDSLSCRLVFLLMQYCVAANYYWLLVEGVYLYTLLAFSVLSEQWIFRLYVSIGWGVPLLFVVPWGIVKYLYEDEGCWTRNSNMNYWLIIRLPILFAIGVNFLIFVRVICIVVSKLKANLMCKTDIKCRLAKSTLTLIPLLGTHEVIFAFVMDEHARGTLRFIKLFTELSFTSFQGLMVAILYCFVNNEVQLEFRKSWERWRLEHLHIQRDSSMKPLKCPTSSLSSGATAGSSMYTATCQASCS
Outline: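 GLP-1R inverse agonism mode: basal reporter luminescence in engineered HEK293 cells measured after one day of compound exposure at 37 deg C, with a 12 min room-temperature detection step.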
`Cc1nnc(Sc2nc3ccccc3o2)c2ccccc12` was tested, and the Potency was inconclusive [inhibitor, single point]. For `CCOc1ccc(OCCN2C(=O)NC3(CCCc4ccccc43)C2=O)cc1` (stereo not given), the Potency was inconclusive [inhibitor, partial curve, poor fit]. `COc1ccc(N2CCN(S(=O)(=O)c3cc(Br)cnc3N)CC2)cc1` was tested, and the Potency was “inactive”. With `Fc1ccc(CNC(=S)Nc2cccc(C(F)(F)F)c2)cc1` the Potency was inconclusive [inhibitor, partial curve, poor fit]. In the case of `COc1ccc(N2CCN(C(=O)c3cccc(S(=O)(=O)N4CCc5ccccc54)c3)CC2)cc1`, the Potency is reported as inconclusive [inhibitor, single point]. For `O=C(c1ccc(Br)o1)N1CCC(Cc2ccccc2)CC1`, the Potency was inconclusive [inhibitor, partial curve, poor fit]. For `CC(C)N(Cc1ccccc1)C(=O)COC(=O)c1c(F)cccc1F`, the Potency was inconclusive [inhibitor, single point]. `CCOc1ccc(N2CC(c3nc4ccccc4n3CCOc3ccccc3)CC2=O)cc1` (stereo not given) was tested, and the Potency was inconclusive [inhibitor, single point]. With `O=C(Oc1ccc2ccccc2c1Br)N1CCCCCC1` the Potency was inconclusive [inhibitor, single point]. In the case of `Cc1ccc(C(=O)C(C)OC(=O)Cn2[nH]c(=O)c3ccccc3c2=O)cc1` (stereo not given), the Potency is reported as inconclusive [inhibitor, single point]. For `O=C1OC(c2ccccc2)(c2ccccc2)c2ccsc21`, the Potency was inconclusive [inhibitor, single point]. In the case of `CC(=O)Nc1sc(N/N=C\c2ccccc2Cl)nc1-c1cccs1`, the Potency is reported as inconclusive [inhibitor, single point]. `O=C(Nc1nonc1-c1ccc(Cl)cc1)c1ccco1` was tested, and the Potency was inconclusive [inhibitor, partial curve]. `COCCNC(=O)c1ccc2c(c1)N(Cc1c(F)cccc1Cl)C(=O)c1ccccc1S2` was tested, and the Potency was inconclusive [inhibitor, partial curve, poor fit]. With `CCN(CC(=O)Nc1cccc(S(=O)(=O)N2CCCCC2)c1)Cc1ccccc1` the Potency was inconclusive [inhibitor, partial curve, poor fit]. In the case of `CCCc1cc(=O)[nH]c(Nc2ccc(C)c(O)c2)n1`, the Potency is reported as “inactive”. For `c1csc(COc2ccccc2CNC2CCCCC2)c1`, the Potency was inconclusive [inhibitor, single point]. `O=C(COC(=O)c1cc([N+](=O)[O-])ccc1N1CCOCC1)NCc1ccc(Cl)cc1Cl` was tested, and the Potency was active: 11.2 µM. With `Cc1cccnc1CCNC(=O)c1ccc(OC2CCN(Cc3ccccn3)CC2)cc1` the Potency was inconclusive [inhibitor, partial curve, poor fit]. In the case of `COc1ccc(Nc2c3c(nc4nncn24)CCC3)cc1Cl`, the Potency is reported as inconclusive [inhibitor, single point]. For `COc1ccc(CCC(=O)N2c3ccccc3N=C(c3ccc4c(c3)OCO4)C2C(=O)NCc2ccccc2)cc1` (stereo not given), the Potency was inconclusive [inhibitor, single point]. For `CCCNC(=O)c1oc2ccc3c(c2c1C)C=CC(C)(C)O3`, the activity change, negative = inhibition was inconclusive: -45% [inhibitor]. In the case of `COCOc1ccc(C2CC(=O)c3c(OCOC)cc(OCOC)cc3O2)cc1` (stereo not given), the Potency is reported as inconclusive [inhibitor, single point]. For `CC1Cc2ccccc2N1C(=O)CNc1ccccc1N1CCCCC1` (stereo not given), the Potency was inconclusive [inhibitor, partial curve, poor fit]. `Cc1ccc(CNC(=O)[C@H](Cc2ccccc2)NC(=O)C2CCNCC2)cc1` was tested, and the Potency was inconclusive [inhibitor, full curve, poor fit]. In the case of `O=C(CNS(=O)(=O)c1cccc(C(F)(F)F)c1)NC1CCCCCC1`, the Potency is reported as inconclusive [inhibitor, partial curve]. In the case of `CCC(C(=O)N1CCN(c2ccc(OC)cc2)CC1)n1nc(C)n2c(cc3occc32)c1=O` (stereo not given), the Potency is reported as inconclusive [inhibitor, full curve, poor fit]. For `CN(C)CCNc1ccc2ncn3c4ccc(O)cc4c(=O)c1c23`, the Potency was inconclusive [inhibitor, full curve, poor fit]. For `CCOc1ccc(CNC(=S)NCc2ccc(OCC)cc2)cc1`, the Potency was inconclusive [inhibitor, partial curve, poor fit]. `O=C(Nc1cccc(-c2ccc(F)cc2)c1)C1CCCN(Cc2cccnc2)C1` (stereo not given) was tested, and the Potency was inconclusive [inhibitor, single point]. For `COc1ccc(-c2cc(C(=O)NCCCN3CCOCC3)c3cc(C(C)C)ccc3n2)cc1`, the Potency was inconclusive [inhibitor, single point]. For `O=C(OCc1nnn(Cc2ccccc2)c1-c1c(COC(=O)c2ccccc2)nnn1Cc1ccccc1)c1ccccc1`, the Potency was inconclusive [inhibitor, partial curve, poor fit]. `CCN(CC)C(=O)c1sc2nc(-c3cccs3)cc(-c3ccc(Cl)cc3)c2c1N` was tested, and the Potency was inconclusive [inhibitor, full curve, poor fit]. `O=c1c2ccccc2nc(N2CCN(c3cccc(Cl)c3)CC2)n1-c1ccccc1` was tested, and the Potency was inconclusive [inhibitor, partial curve, poor fit]. `CC(=O)/C(=N/Nc1ccccc1)Sc1nnc(CCc2ccccc2)n1-c1ccccc1` was tested, and the Potency was inconclusive [inhibitor, single point]. For `CN1CCN(C(=O)c2cc(C(C)(C)C)cc(C(C)(C)C)c2)CC1`, the Potency was inconclusive [inhibitor, single point]. In the case of `CCOCCn1c2ccccc2c2nc3ccccc3nc21`, the Potency is reported as inconclusive [inhibitor, single point]. `CN(Cc1ccccc1)C(=O)c1ncn(Cc2ccccc2)c1C(=O)N(C)Cc1ccccc1` was tested, and the Potency was inconclusive [inhibitor, single point]. For `CCC(c1nnnn1Cc1ccco1)N(Cc1cc2cc(OC)ccc2[nH]c1=O)C1CCCCC1` (stereo not given), the Potency was inconclusive [inhibitor, single point]. For `CN(C)c1nc(SCC(=O)Nc2ccc(Cl)c(Cl)c2)nc(N2CCOCC2)n1`, the Potency was inconclusive [inhibitor, partial curve, poor fit]. With `CN1C/C(=C/c2ccccc2[N+](=O)[O-])C(=O)/C(=C\c2ccccc2[N+](=O)[O-])C1` the Potency was “inactive”. With `O=C(CCN1C(=O)C2CCCCC2C1=O)Nc1nc(-c2ccc(F)c(F)c2)cs1` (stereo not given) the Potency was inconclusive [inhibitor, single point]. For `COc1ccc(CCNC(=O)Cn2nc(C)c3c(C)n(-c4ccc(C)cc4)nc3c2=O)c(OC)c1`, the Potency was inconclusive [inhibitor, full curve]. `CCOC(=O)C(=O)NNc1cccc(C)c1C` was tested, and the Potency was inconclusive [inhibitor, full curve, poor fit]. `CCOC(=O)CC1COCCN1C(=O)c1ccc2oc(Cc3ccccc3)nc2c1` (stereo not given) was tested, and the Potency was “inactive”. In the case of `CCO[C@H]1OC(C(=O)NCc2nc3ccccc3[nH]2)=C[C@@H](c2csc3ccccc23)[C@@H]1CCCO`, the Potency is reported as inconclusive [inhibitor, single point]. With `O=C1CCCc2ccccc2N1Cc1ccc(Cl)cc1Cl` the Potency was active: 11.2 µM. With `Cc1cc(OCC(=O)NCC(C)C)cc(C)c1Br` the Potency was inconclusive [inhibitor, single point]. In the case of `Cc1ccc([N+](=O)[O-])c(OCCN2CCCCCC2)c1`, the Potency is reported as inconclusive [inhibitor, partial curve, poor fit]. With `O=C(NCCC1=CCCCC1)c1ccc2c(c1)N(Cc1ccc(Cl)cc1)C(=O)c1ccccc1S2(=O)=O` the Potency was inconclusive [inhibitor, single point]. `C=CCNC(=S)N/N=C/c1ccc(N(CC)Cc2ccccc2)cc1` was tested, and the Potency was inconclusive [inhibitor, full curve, poor fit]. In the case of `O=C(NC1CCCC1)C1C(c2ccc(C(F)(F)F)cc2)=Nc2ccccc2N1C(=O)c1ccccc1` (stereo not given), the Potency is reported as inconclusive [inhibitor, single point]. With `CCOc1ccc2[nH]c3c(N4CCC5(CC4)OCCO5)ncnc3c2c1` the Potency was inconclusive [inhibitor, partial curve, poor fit]. In the case of `Cc1ccc(Cl)cc1Nc1nc(-c2sc(NC(=O)C(C)(C)C)nc2C)cs1`, the Potency is reported as inconclusive [inhibitor, single point]. `Cc1cccc(Nc2nc(-c3ccc(F)c(C)c3)cs2)n1` was tested, and the Potency was inconclusive [inhibitor, partial curve, poor fit]. For `COc1cccc2[nH]c(C(=O)NCc3ccccc3)cc12`, the activity change, negative = inhibition was inconclusive: -41.5% [inhibitor]. For `COc1ccccc1CNCC(=O)Nc1cc(S(=O)(=O)N2CCCCCC2)ccc1Cl`, the Potency was inconclusive [inhibitor, partial curve, poor fit]. With `Cc1nnc(NCc2ccc(F)cc2)c2c1nnn2Cc1ccccc1Cl` the Potency was “inactive”. In the case of `COc1c2c(nc3occc13)C(CC=C(C)C)(OC)C(OC(C)=O)CC2` (stereo not given), the Potency is reported as inconclusive [inhibitor, partial curve, poor fit]. With `CCOC1=C2[C@H](c3ccccc3)N(S(=O)(=O)c3ccc(C)cc3)C(C(C)(C)C)[C@H]2C(C#N)(C#N)C(C#N)(C#N)C1` (stereo not given in full) the Potency was inconclusive [inhibitor, partial curve, poor fit].

— PubChem BioAssay AID624417 (National Center for Advancing Translational Sciences (NCATS), 2012)
% is scaled to controls: 0 for no effect and ±100 for the full control effect; potency is read from the fitted curve at half-maximal effect; tags tell the direction and shape of the fitted curve.
Also: nearly all actives have a fitted effect of over 55% in size.
